Laboratory results taken from the supplement of paper PMC11417369.
± gives the standard deviation of the averaged measurements. This is one part of the list.

System: PfAP2-G AP2 domain (GST-tagged)
Assay: gcPBM binding intensity (ln(normalized median fluorescence intensity)); higher = stronger DNA binding
Procedure, shortened: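 DNA-binding domains from P. falciparum, fused to GST and produced in E. coli, were put on an Agilent 4 × 180k double-stranded probe array for 1 h in 1× PBS holding 1% milk, 0.2 mg/ml BSA, 0.5% salmon testes DNA and 0.03% Triton X-100. Probes were primer-extended, 36 bp long and drawn from intergenic genomic regions, with negative controls included. After Alexa488 anti-GST antibody detection and a 488 nm scan, binding intensity was set as the highest Masliner-normalised natural-log median intensity across replicate spots of either probe orientation.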

“TATTGTTATTAAAAATGTACATATAAATTTCTTATT [XGTACX_site1409]” and “AAAAATAAAAGGTGTGCACACAAAAATATATATATA [CACACA_site8507]” are within error of each other in “gcPBM binding intensity (ln)” value: 11.3 ± 0.79 for the first, 10.7 ± 0.44 for the second.

First: AATTTAAAAAATAACAGTACATAAAATATATACATA [XGTACX_site7917]
Second: GTATGATGCATAAGAGTGCATAAGGATATTTCTTCA
The “gcPBM binding intensity (ln)” value of the first is higher: 10.8 ± 0.48 for the first, 9.965 ± 0.021 for the second.

First: TAATATTAAATAAATAAAATATATAATATATATATA [XGTACX_negctrl_site49]
Second: TAATATATAACGTGCACACACACATCTACGTATGAA [CACACA_site5080]
The “gcPBM binding intensity (ln)” value of the first is lower: 9.47 ± 0.2 for the first, 10.5 ± 0.34 for the second.

First: TGTGTATATTATATGTGTACATATCAATGTTTATAT [XGTACX_site1885]
Second: TGGCATTAAAATTTAGTGCATATATCTTAGCATGGG
The “gcPBM binding intensity (ln)” value of the first is higher: 11.4 ± 0.89 for the first, 9.79 ± 0.014 for the second.

“AGATATGTTTTTAATTGTACATAAATACACAAATAT [XGTACX_site5981]” and “TGTAATAAATAGTACACACACACATATATATATATT [CACACA_site1388]” are within error of each other in “gcPBM binding intensity (ln)” value: 11 ± 0.67 for the first, 11.4 ± 0.94 for the second.

First: AAAGAATTATATAAGGTGCACGAATGTTTCTTTAAT
Second: ATATGTGTGTGTATTTGTACCCAATTTTTATATATA [XGTACX_site4948]
The “gcPBM binding intensity (ln)” value of the first is lower: 10.03 ± 0.028 for the first, 11.3 ± 0.78 for the second.

Compared with “AAAAAAAAAAAAAAAAAAAAAATACATATATATATA [CACACA_negctrl_site290]”, “TGTTCTATTCTATTATTATTTACAAATTATAAATAA [GTGCAC_negctrl_site232]” is lower in “gcPBM binding intensity (ln)” value: 10.8 ± 0.44 for the first, 9.98 ± 0.18 for the second.

First: TATATATATTAGTGTGCACACTTTTTATTTTTATCC [CACACA_site8506]
Second: ATATATTTATAATAGGTGCATATGTTTTATTTTTCC [GTGCAC_site9849]
The “gcPBM binding intensity (ln)” value of the first is higher: 10.5 ± 0.28 for the first, 9.945 ± 0.078 for the second.

First: TCGTGTTAAATTTTTACACACAAACTTGCAATAATT [CACACA_site3824]
Second: AACTATAACTAAAAAAATCACATAAAATATTTTATT [TGCATGCA_negctrl_site363]
The “gcPBM binding intensity (ln)” value of the first is higher: 10.1 ± 0.21 for the first, 9.66 ± 0.14 for the second.

First: TATAAATATATTTATACACACATTAGTGTATACATG [CACACA_site7397]
Second: AACAATAAAAATAATTGTACAAGTTTAAAAAAAATT [XGTACX_site1987]
The “gcPBM binding intensity (ln)” value of the first is lower: 10.2 ± 0.11 for the first, 11.2 ± 0.63 for the second.

Going from “TCTTTAAATTTCTCAACACACAGTTATAAAAAATAA [CACACA_site2856]” to “TATATCTTATTTAACACACACAAAGAAAATAGAAAA [CACACA_site3732]”, the “gcPBM binding intensity (ln)” value rises from 9.8 ± 0.085 to 10.2 ± 0.18.

“AATATATATAATTATAGTACAGAAAATTAAAAAAGA [XGTACX_site2943]” and “ATATTTTTTTTTGTTAGTACTCATATTTGTAGTTTT [XGTACX_site7280]” are within error of each other in “gcPBM binding intensity (ln)” value: 11.1 ± 0.47 for the first, 11.2 ± 0.82 for the second.

“CATTTAAGACAAATTACACACGTATGCCAAATATAT [CACACA_site431]” and TTTTTAATTTCAATGGTGCAGTAATAATATAATAGT are within error of each other in “gcPBM binding intensity (ln)” value: 10.5 ± 0.23 for the first, 10.4 ± 0.46 for the second.

“TTTTTTATTTATCCTATATATTACTAAATGAAGAAC [GTGCAC_negctrl_site333]” and “TTATTTCAAAGTAAATCAGTAAATATTTGTTTTCTT [CACACA_negctrl_site1572]” are within error of each other in “gcPBM binding intensity (ln)” value: 9.99 ± 0.35 for the first, 9.54 ± 0.18 for the second.

“TCCTTATTTATATAATGTACTTTTTTTTTTCATTTT [XGTACX_site4275]” and “ATGAATCCTTAATATGAACACACAAATATATTACAC [CACACA_site7943]” are within error of each other in “gcPBM binding intensity (ln)” value: 11.4 ± 0.93 for the first, 10.3 ± 0.25 for the second.

First: TACAAGTATAAATAAGCACACATGTGGATATGTACA [CACACA_site4229]
Second: AAAATATAAAATAATGCACACATAAACAAAAAATCA [CACACA_site8382]
The “gcPBM binding intensity (ln)” value of the first is higher: 10.8 ± 0.42 for the first, 10.2 ± 0.15 for the second.

“TAAGAAGTATTTTCCTGTACATATTTTATATGTATG [XGTACX_site4658]” and “TTATTTTATATATCACGTACATAGTTGTCTTCTTTT [XGTACX_site2906]” are within error of each other in “gcPBM binding intensity (ln)” value: 11.2 ± 0.68 for the first, 11.1 ± 0.72 for the second.

“TAAAGTTAAAAATTATGTACATATATATTGTATATT [XGTACX_site5528]” and “GATAAAATAGGACCATATTCTTTAAAACGATAAAAT [XGTACX_negctrl_site405]” are within error of each other in “gcPBM binding intensity (ln)” value: 11.1 ± 0.62 for the first, 10.9 ± 0.64 for the second.

“ATATATATATATTTATGTACATATACATAATGTATA [XGTACX_site6387]” and “TATATGTGTGTTATATGTACTTATATATATATATAT [XGTACX_site5570]” are within error of each other in “gcPBM binding intensity (ln)” value: 11.2 ± 0.76 for the first, 11.3 ± 0.82 for the second.

ATAATGAACAAAGTAGTGCACTTTCCTTATCTTTTC and “AAGGTTTAAAATTACTGTACAAATATAAATAAATAT [XGTACX_site3756]” are within error of each other in “gcPBM binding intensity (ln)” value: 10.4 ± 0.16 for the first, 10.8 ± 0.5 for the second.

Going from “ATCAAAAAAAAAAAAAGTACACAAAATTTTTTATTA [XGTACX_site7986]” to “ACTAATATGTATATATATATATATATATATATATAT [CACACA_negctrl_site141]”, the “gcPBM binding intensity (ln)” value falls from 11.5 ± 0.76 to 9.85 ± 0.33.

First: TACATATTTAAATACTGTACTCAAAAGAATTGTGCA [XGTACX_site2250]
Second: TATAGTATTCTAAATGCATGTAAATTATGTATATAT [TGCATGCA_site931]
The “gcPBM binding intensity (ln)” value of the first is higher: 11.5 ± 1 for the first, 9.87 ± 0.057 for the second.

“AAATTCCACGAACACACACACATATAAATAAATAAA [CACACA_site6697]” and “TAGTAAAAACCAAAATGTACATGTGCCATTTTTTTA [XGTACX_site2630]” are within error of each other in “gcPBM binding intensity (ln)” value: 10.2 ± 0.34 for the first, 11 ± 0.62 for the second.

“TATATTATACTAAGAAGTACAATATTTTTATTGTAA [XGTACX_site2810]” and “CTTATATTGTACAGTACACACCTTTATAATGTTATT [CACACA_site4280]” are within error of each other in “gcPBM binding intensity (ln)” value: 11.4 ± 1.1 for the first, 11.5 ± 0.71 for the second.

Going from “GATTATTAATAGTAACGTACATATGTTATAAAATAT [XGTACX_site5277]” to “GTTTATCACAGCCACGCACACATAATATCTGTATAT [CACACA_site5929]”, the “gcPBM binding intensity (ln)” value falls from 11.2 ± 0.73 to 10.2 ± 0.18.

“TTGTTTCTCTTTAAAAGTACAAAAATGGTTACATAT [XGTACX_site3109]” and “TAGATTTTTTAATGTTGTACAAATATACGATATATA [XGTACX_site3258]” are the same in “gcPBM binding intensity (ln)” value: 11.2 ± 0.67 for the first, 11.2 ± 0.7 for the second.

“ACTATTCATGCATATACACACACATATATATATATT [CACACA_site9309]” and “ACATCAAGCAGACACACACACACACGCACACGCACA [CACACA_site6309]” are the same in “gcPBM binding intensity (ln)” value: 10.5 ± 0.37 for the first, 10.5 ± 0.28 for the second.

First: CAATATTTTATTTAAGCATGCTCTAGGGTGTAAAAG [TGCATGCA_site1001]
Second: CAATTTCTCTTAATTTGTACATATATGTTATACAAA [XGTACX_site3231]
The “gcPBM binding intensity (ln)” value of the first is lower: 10.2 ± 0.16 for the first, 11 ± 0.22 for the second.

For “ACTTTAAACAAAAAAAGTACTCTTTAATGAATATAT [XGTACX_site7176]”, the “gcPBM binding intensity (ln)” value was 11.4 ± 0.82.
